These results are taken from the RNAGym collection of RNA variant scans (doi:10.1073/pnas.2313332121).

Variants at the floor of the assay are shown more often than the library holds them.

The labels stand for the following.
B1: TPR 5TU (parent)
chain: GGAUCUUCUCGAUCUAACAAAAAAGACAAAUCUGCCACAAAGCUUGAGAGCAUCUUCGGAUGCAGAGGCGGCAGCCUUCGGUGGCGCGAUAGCGCCAACGUUCUCAACUAUGACACGCAAAACGCGUGCUCCGUUGAAUGGAGUUUAUCAUG

Variants of B1 are the subject of this series. The series can be described thus: polymerase ribozyme fitness, log enrichment relative to wild type (log ratio); higher = more active; in vitro selection for triplet polymerase activity. A digest of the protocol: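 Mutant libraries of both subunits of a heterodimeric triplet polymerase ribozyme were PCR-built, transcribed, and selected once in triplicate, with frozen incubation at −7 °C and capture of gel-excised extended constructs on streptavidin beads before RT-PCR. Illumina sequencing of input and output libraries was filtered to genotypes with ≥10 input reads and ≥1 read per output. Fitness is the logarithm of genotype enrichment over wild-type enrichment, using inverse-variance-weighted replicate averages. The logarithm is base 2.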
As for C5A C8G A30U U56A A91U G128A A137G, the “polymerase ribozyme fitness (log ratio)” value was not above -4.2. In the case of C5A C14G A19G C36A U102G C132G, the “polymerase ribozyme fitness (log ratio)” value was not above -4.2. The figure for U4C U6G U33A C35G is not above -4.2; for U4G U6A A26C A47U G48C C51A G86A it is not above -4.2; for U4G C5G G67U G94C A119C U134G A147C it is not above -4.2. For the variant C5G A24G C75U U109A A138G A147C, the “polymerase ribozyme fitness (log ratio)” value was not above -4.2. As to U4C U9A A41C G48C C51A G68A G83C, the “polymerase ribozyme fitness (log ratio)” value is not above -4.2.

In the case of C5A U7C A26C U44A G58U A73C C87A A121C, the “polymerase ribozyme fitness (log ratio)” value was not above -4.2. On to U4G C57A A73G C87U, for which the “polymerase ribozyme fitness (log ratio)” value is -0.214.

As to C5A C27U U55G G83A G92U U148A, the “polymerase ribozyme fitness (log ratio)” value is not above -4.2. Consider C5A A29U C51G A52U C85G A89U C93G, for which the “polymerase ribozyme fitness (log ratio)” value was not above -4.2. The figure for C5A A16G U44A C57G C69U U78G C79G G80U U109G is not above -4.2; for C5G C54A G58C A73G C79A C87U C116A A138G it is not above -4.2; for U4G A41U G50C C85G it is not above -4.2. The figure for C5G A19G A24C A40U U55A G83U G86U A115G G140U is not above -4.2; for C5G A29U G48C U53G U56A A106C it is not above -4.2; for C5A A24G U31A U61C C87U G136U it is not above -4.2.

Consider U4G U13G C96A A120G G133U A142U, for which the “polymerase ribozyme fitness (log ratio)” value was not above -4.2.

C5G C8U A30U C75G U90A C96U A115G: the “polymerase ribozyme fitness (log ratio)” value was not above -4.2. Then C5G A49C C54U G84U A106C A119U G126U, with not above -4.2; and C5A A40U A60C G84U C116U A150U, with not above -4.2; and C5G A16C A21C A22C A73G C96A A113U, with not above -4.2.

In the case of C5A C96A A97G C108U, the “polymerase ribozyme fitness (log ratio)” value was not above -4.2. The figure for C5A G59A C76U U77A G84A C118G C132G is not above -4.2; for C5A U6G U82C C95G it is -2.28; for C5A U9C C10G A26U U90G A137G A142U it is not above -4.2. The figure for C5G A17C A26U A37C A52C C93A A106G is not above -4.2; for C5A G42C C85U G112A it is not above -4.2; for C5G A64G G86A A89G G136U U151A it is not above -4.2. Then U4C U6C G48A C87U U102G A113U, with not above -4.2; and C5A A21U C32U C38G G50A C57A G59A A89G U145C, with not above -4.2.

Consider C5A G58A G86U, for which the “polymerase ribozyme fitness (log ratio)” value was -1.52. Regarding C5A G25C A41C C85U A89C A115G C132G U146C U148G, the “polymerase ribozyme fitness (log ratio)” value was not above -4.2. Take C5G A41C U55A G58A A60G: the “polymerase ribozyme fitness (log ratio)” value was -1.54.

Regarding U4G U31A C54U G86C G92U U148G, the “polymerase ribozyme fitness (log ratio)” value was not above -4.2. Regarding C5G A24C A28U A29U G50U G83C G126A U146A, the “polymerase ribozyme fitness (log ratio)” value was not above -4.2. C5A C35A U55A A91G G100U G126A A147G: the “polymerase ribozyme fitness (log ratio)” value was not above -4.2.

Consider C5G C35U U77G C87A U104G, for which the “polymerase ribozyme fitness (log ratio)” value was not above -4.2. Regarding C5G A30G C36U C75G C95G U127A, the “polymerase ribozyme fitness (log ratio)” value was not above -4.2.

As for C5G C32U A91G A115G, the “polymerase ribozyme fitness (log ratio)” value is not above -4.2. The figure for C5G A39U C57A G59U G83U C103G C116U is not above -4.2; for C5G G46C G59C U61G G70A G92A A121U it is not above -4.2.
